Biological target: T1, KDR expressed on transiently transfected 293H cells (human, UniProt P35968)
T1 construct: whole, on cells; also called KDR-expressing cells
Test: fluorescent bead binding to KDR-transfected and mock 293H cells

T1 sequence (P35968 20-1356): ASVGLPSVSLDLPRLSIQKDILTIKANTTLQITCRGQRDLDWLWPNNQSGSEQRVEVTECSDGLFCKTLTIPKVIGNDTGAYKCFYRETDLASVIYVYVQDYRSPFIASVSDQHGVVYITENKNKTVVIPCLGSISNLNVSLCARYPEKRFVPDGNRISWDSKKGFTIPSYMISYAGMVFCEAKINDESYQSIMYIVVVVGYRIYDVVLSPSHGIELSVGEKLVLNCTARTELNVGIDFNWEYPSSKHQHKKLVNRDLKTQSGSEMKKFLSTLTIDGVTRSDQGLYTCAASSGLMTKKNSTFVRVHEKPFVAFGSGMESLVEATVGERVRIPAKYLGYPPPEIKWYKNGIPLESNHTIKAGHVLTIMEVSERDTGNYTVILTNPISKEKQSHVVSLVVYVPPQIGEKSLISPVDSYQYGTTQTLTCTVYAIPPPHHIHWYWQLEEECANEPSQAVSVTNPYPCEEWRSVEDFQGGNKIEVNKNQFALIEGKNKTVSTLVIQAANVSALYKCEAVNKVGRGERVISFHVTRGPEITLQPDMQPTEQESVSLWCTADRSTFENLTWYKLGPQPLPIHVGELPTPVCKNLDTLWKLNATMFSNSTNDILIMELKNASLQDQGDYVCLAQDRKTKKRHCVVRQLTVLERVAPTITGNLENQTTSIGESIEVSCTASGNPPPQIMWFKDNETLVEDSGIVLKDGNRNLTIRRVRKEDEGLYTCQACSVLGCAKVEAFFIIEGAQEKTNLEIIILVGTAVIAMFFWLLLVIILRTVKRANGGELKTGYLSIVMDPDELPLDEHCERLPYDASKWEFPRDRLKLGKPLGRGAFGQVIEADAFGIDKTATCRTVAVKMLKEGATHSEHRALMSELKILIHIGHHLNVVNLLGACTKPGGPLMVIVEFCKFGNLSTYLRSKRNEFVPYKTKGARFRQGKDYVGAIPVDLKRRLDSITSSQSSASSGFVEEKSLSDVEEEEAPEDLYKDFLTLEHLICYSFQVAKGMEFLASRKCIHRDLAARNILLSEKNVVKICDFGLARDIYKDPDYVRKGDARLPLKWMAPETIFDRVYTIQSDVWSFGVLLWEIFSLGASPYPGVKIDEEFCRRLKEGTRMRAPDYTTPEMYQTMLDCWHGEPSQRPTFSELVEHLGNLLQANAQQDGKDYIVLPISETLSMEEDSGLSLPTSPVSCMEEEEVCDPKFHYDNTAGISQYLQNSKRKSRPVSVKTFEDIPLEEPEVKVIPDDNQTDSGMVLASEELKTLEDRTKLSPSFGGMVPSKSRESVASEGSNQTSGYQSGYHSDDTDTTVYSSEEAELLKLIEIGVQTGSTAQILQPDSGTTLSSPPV

B1: unconjugated neutravidin-coated fluorescent beads (other, UniProt P02701 25-152, looked up)
chain: ARKCSLTGKWTNDLGSNMTIGAVNSRGEFTGTYITAVTATSNEIKESPLHGTQNTINKRTQPTFGFTVNWKFSESTTVFTGQCFIDRNGKEVLKTMWLLRSSVNDIGDDWKATRVGINIFTRLRTQKE
modifications: on 2 micron red fluorescent microspheres
notes: negative control; also called avidin beads with nothing attached
B1: no binding.
